Assay results taken from PMC4242493.
This is one part of the list. The list includes weakly bound sequences.

target: MaxL homodimer (UniProt P61244); assay: universal protein-binding microarray (PBM); settings: PBS-based mixture, 10 nM His-tagged protein dimer, 2% milk, 200 ng/uL BSA, 50 ng/uL salmon testes DNA, 0.02% TX-100; detection with Alexa 488 anti-His …; high values mean tight binding; most listed sequences are background and not binding sites; double strand, one strand shown
UniProt P61244, sequence (P61244 whole entry): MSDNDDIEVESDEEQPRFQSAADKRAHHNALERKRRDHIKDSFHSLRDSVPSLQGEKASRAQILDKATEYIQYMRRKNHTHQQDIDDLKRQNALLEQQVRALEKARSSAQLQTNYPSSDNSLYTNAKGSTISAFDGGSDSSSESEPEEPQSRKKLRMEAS

| Sequence | binding signal (normalized occupancy) |
| --- | --- |
| AAAATAGC | 0.0757 |
| ATGATTCC | 0.0866 |
| GTCCCGTA | 0.0722 |
| AGGGGGAG | 0.0706 |
| GAGCGCCA | 0.0704 |
| ACCCCCTG | 0.0802 |
| CCCGTGCG | 0.0872 |
| CCACCAAC | 0.0786 |
| AATAAGTA | 0.0754 |
| AGATAGAA | 0.0749 |
| TGATTGAA | 0.0774 |
| GATCTTGC | 0.0794 |
| AACTTACA | 0.0744 |
| GTGAACAA | 0.0768 |
| CAGTTGTA | 0.0739 |
| GGAAACAC | 0.0759 |
| TACGTCAA | 0.0836 |
| ACTTTCAA | 0.0724 |
| CACACGTG | 0.553 |
| ATAACGGG | 0.0747 |
| ATCTCTGC | 0.0737 |
| TAACTTCA | 0.0746 |

| Sequence | binding signal (normalized occupancy) |
| --- | --- |
| ACGAAGGC | 0.071 |
| GGCTACAC | 0.0745 |
| ACGATTCT | 0.0779 |
| CTACTGTC | 0.0719 |
| AGGAGGAG | 0.0756 |
| AGGCGATC | 0.0722 |
| GCTGTGAA | 0.0762 |
| GTGCACAA | 0.0767 |
| ACCTCATA | 0.0788 |
| ATCCATGA | 0.0864 |
| ACATCAAA | 0.0775 |
| CGAGACTC | 0.0777 |
| ACAGAGCG | 0.0698 |
| ACAATCAT | 0.0819 |
| AGAGAGCT | 0.0689 |
| AAAAGCGC | 0.0714 |
| AAAACTAC | 0.0811 |
| CTGGCACA | 0.0744 |
| ATTTGAGG | 0.0731 |
| AGGAAGTA | 0.0706 |
| GTACCTTA | 0.0797 |
| AAAAGTAT | 0.0802 |

| Sequence | binding signal (normalized occupancy) |
| --- | --- |
| CGCCTGAC | 0.078 |
| GTTCATGA | 0.0798 |
| ATGTACTA | 0.0841 |
| TAGTGCCA | 0.0728 |
| GCGGCAAC | 0.0698 |
| CGTAATGA | 0.0798 |
| AGCTCTCG | 0.067 |
| TCTGACCA | 0.0726 |
| GTAAGCAA | 0.0832 |
| AGTGTGCA | 0.0821 |
| AAACTCTT | 0.0711 |
| GACCCCTC | 0.0715 |
| AATATTAA | 0.0815 |
| CAACTCGC | 0.0732 |
| CCCGTCAA | 0.0675 |
| CGCCCATA | 0.0775 |
| ATGCTGGA | 0.0806 |
| ATGCACGC | 0.111 |
| ATTATCCA | 0.0846 |
| ACCAACCG | 0.0755 |
| ATACCAAT | 0.0816 |
| GTGCCTGA | 0.0714 |

| Sequence | binding signal (normalized occupancy) |
| --- | --- |
| CCTCACAC | 0.082 |
| AAGCCCTG | 0.07 |
| GATATTGA | 0.0778 |
| CATGAGCA | 0.0902 |
| CTGACCAG | 0.066 |
| AATACTGT | 0.0767 |
| AGGGTTCA | 0.0737 |
| AGGTCAAA | 0.0707 |
| CTACACAG | 0.0788 |
| ATAAACCA | 0.0758 |
| CCGGGAAC | 0.0715 |
| TATGCAAA | 0.0776 |
| ACCGGTAA | 0.0723 |
| ATAATGCC | 0.0813 |
| CGACATAA | 0.0783 |
| CAAAAGCG | 0.0731 |
| AATTGCAC | 0.0813 |
| CCGGGTGC | 0.0718 |
| GTGGTAGA | 0.0878 |
| AATAGTGG | 0.078 |
| CCTCCCAC | 0.0815 |
| CAAAGCAG | 0.0675 |

| Sequence | binding signal (normalized occupancy) |
| --- | --- |
| AAATCCAG | 0.0745 |
| AATCATAG | 0.0777 |
| ACGAATTA | 0.0712 |
| AAGTCGAA | 0.0712 |
| GCATCTAC | 0.0779 |
| AACACTCG | 0.0722 |
| CTCAATAC | 0.0799 |
| CACTTGAA | 0.0769 |
| ACGCAATC | 0.0766 |
| ACGCTGGC | 0.0794 |
| AATCTTTA | 0.0794 |
| TATCAGAA | 0.0755 |
| ATCAATAA | 0.0781 |
| ACGGCCCG | 0.0694 |
| ATGGATAG | 0.081 |
| GGTACGAC | 0.0721 |
| CTGATCGC | 0.0732 |
| ACCTTGAA | 0.0764 |
| GGAGACCC | 0.0788 |
| ATGACCGG | 0.0725 |
| CGGTGATA | 0.0769 |
| AACAGCAA | 0.0752 |
